The campaign covered roughly 310,000 compounds. About 14,000 (4.5%) showed an effect of 50% or more. The effect is printed as a negative number. The list shows a part of the results.
Biological target: human ether-à-go-go-related gene (hERG) potassium channel (human, UniProt Q12809)
Experiment: primary screen, population patch clamp on CHO cells stably expressing hERG
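Also: peak tail current of the secondary pulse compared with the same well before compound.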

Sequence of human ether-à-go-go-related gene (hERG) potassium channel (Q12809 whole entry, looked up): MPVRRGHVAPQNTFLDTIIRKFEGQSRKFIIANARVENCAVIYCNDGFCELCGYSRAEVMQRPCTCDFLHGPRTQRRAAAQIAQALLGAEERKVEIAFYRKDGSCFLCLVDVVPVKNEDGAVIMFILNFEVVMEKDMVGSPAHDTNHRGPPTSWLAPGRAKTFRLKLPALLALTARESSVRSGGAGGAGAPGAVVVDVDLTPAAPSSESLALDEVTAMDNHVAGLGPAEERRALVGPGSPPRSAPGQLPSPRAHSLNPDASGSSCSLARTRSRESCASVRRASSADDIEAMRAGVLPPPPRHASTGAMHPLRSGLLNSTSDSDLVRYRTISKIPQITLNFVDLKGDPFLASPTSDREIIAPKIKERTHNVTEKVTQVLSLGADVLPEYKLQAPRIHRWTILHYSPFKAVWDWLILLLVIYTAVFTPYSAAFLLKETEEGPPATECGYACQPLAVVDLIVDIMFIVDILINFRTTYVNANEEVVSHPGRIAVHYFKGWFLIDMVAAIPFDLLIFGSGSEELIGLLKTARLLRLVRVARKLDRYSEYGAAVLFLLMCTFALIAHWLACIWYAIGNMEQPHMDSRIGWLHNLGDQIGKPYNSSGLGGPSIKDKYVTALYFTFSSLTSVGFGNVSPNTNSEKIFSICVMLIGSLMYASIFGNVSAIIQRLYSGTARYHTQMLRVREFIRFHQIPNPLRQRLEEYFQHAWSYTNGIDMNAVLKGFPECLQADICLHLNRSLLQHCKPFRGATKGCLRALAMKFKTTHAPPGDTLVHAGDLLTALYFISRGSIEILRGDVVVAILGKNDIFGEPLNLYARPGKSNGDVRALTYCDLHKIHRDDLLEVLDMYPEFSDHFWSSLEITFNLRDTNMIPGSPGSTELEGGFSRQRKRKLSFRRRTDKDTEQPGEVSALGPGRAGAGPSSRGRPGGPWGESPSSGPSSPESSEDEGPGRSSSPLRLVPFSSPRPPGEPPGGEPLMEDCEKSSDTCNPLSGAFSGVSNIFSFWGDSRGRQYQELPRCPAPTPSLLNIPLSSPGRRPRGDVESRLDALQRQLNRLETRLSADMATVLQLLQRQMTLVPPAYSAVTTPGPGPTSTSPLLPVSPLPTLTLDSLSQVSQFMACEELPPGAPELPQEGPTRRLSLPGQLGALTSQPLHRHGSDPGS

Compound | hERG current change (%, negative = inhibition) at 10uM [%]
CN(C)S(=O)(=O)c1cccc(NC(=O)c2cc(=O)[nH]c3ccccc23)c1 | -9.21
CCOC(=O)C1CCN(C2CCN(Cc3nc(-c4ccccc4)no3)CC2)CC1 | -71.5
O=C(CSc1nnc(C2CC2)n1CC1CCCO1)Nc1cccc(Cl)c1 (centres unmarked) | -56.1
CC(C)c1ccc(N=Cc2c(O)c3ccccc3oc2=O)cc1 | 16.3
CCN(CC)c1ccc(C2N(C(=O)N3CCOCC3)CCN2S(=O)(=O)c2ccc(C)cc2)cc1 (centres unmarked) | -18
O=C(O)c1cc(=O)n(Cc2ccccc2)c(=O)[nH]1 | 15
CCOC(=O)c1c(NC(=O)CCC(=O)N2CCOCC2)sc2c1CC(C)(C)OC2 | -6
COc1ccc(CCN2CCCn3c2nc2c3c(=O)n(CC(C)C)c(=O)n2C)cc1OC | -40.9
Cc1ccc(SCc2noc(C(=O)NC(C)C)c2C(=O)O)cc1C | 7.76
O=C(NCc1ccccc1CN1CCCC1)c1cccc(S(=O)(=O)Nc2ccc(F)cc2)c1 | -75.2
CCCc1cc(=O)[nH]c(SCC(=O)NC2(C#N)CCCCC2)n1 | 8.07
O=C(CNC(=O)c1ccc(Cl)cc1Cl)OCN1C(=O)c2ccccc2C1=O | 3.68
O=C1CC(NC23CC4CC(CC(C4)C2)C3)C(=O)N1c1ccc2c(c1)OCO2 (centres unmarked) | 1.53
O=C(NCCNS(=O)(=O)c1ccc(Cl)cc1)c1cc(OCC(F)(F)F)ccc1OCC(F)(F)F | 5.11
Cc1cccc(OCC(=O)Nc2nc3ccc([N+](=O)[O-])cc3s2)c1C | 15.3
CN(Cc1ccccc1F)C(=O)CNC(=O)Cc1cccc2ccccc12 | -3.65
COc1cc(C(=O)NCC2(c3ccccc3)CCCC2)ccc1OC(C)C | -24.2
CCOC(=O)C(NC(=O)Nc1ccc(Cl)cn1)(Oc1ccccc1)C(F)(F)F (centres unmarked) | 4.75
Cc1cccc(N(CC(O)CN2CCCC2)S(=O)(=O)c2ccccc2)c1 (centres unmarked) | -57

Compound | hERG current change (%, negative = inhibition) at 10uM [%]
Cc1ccc(C(=O)CNc2ccc(C)cc2C)cc1 | 12
Cc1ccc(Cl)cc1N(CC(=O)NC(C)c1ccccc1)S(C)(=O)=O (centres unmarked) | 13.5
CN(CCN1CCc2ccccc2C1)Cc1nc(-c2ccc3c(c2)OCO3)no1 | -46.1
CC1CC(C)CN(CCCNC(=O)c2cc3c(=O)[nH]c4ccccc4c3n2C)C1 (centres unmarked) | 10.7
Cc1ccc(/C=N/NC(=O)Cc2c[nH]c3ccccc23)c(C)c1 | 13.9
CCn1c(-c2cccs2)nc2ccccc21 | -11.4
O=C(c1cccc([N+](=O)[O-])c1)c1ccc2c(c1)OCCOCCOCCO2 | -52.8
COc1ccccc1CN=C1NC(=O)C(CC(=O)Nc2ccc(OC)c(OC)c2)S1 (centres unmarked) | -1.85
CCC(C)(C)NC(=O)C(c1ccccc1)N(Cc1cccs1)C(=O)Cn1nnc2ccccc21 (centres unmarked) | 7.58
Cc1cccc(NC(=O)CN2C(=O)c3ccccc3S2(=O)=O)n1 | 6.7
O=C(c1coc(=O)c(Br)c1)N1CCC(C(O)(c2ccccc2)c2ccccc2)CC1 | -14.8
O=C(Cc1csc(Nc2nc(=S)[nH]c3ccccc23)n1)NCCCN1CCN(c2ccccc2F)CC1 | -3.52
COC(=O)CSc1nc(N)c(NC(=O)c2ccc(OC)c(OC)c2)c(=O)[nH]1 | 21.5
COc1ccccc1Nc1nc(-c2ccccc2O)nc2ccccc12 | 13.8
COc1cc(C(=O)N2CCC(NC(=O)C(Cc3ccccc3C)NC(C)=O)CC2)cc(OC)c1OC (centres unmarked) | 1.4
Cc1cc2nc(/C(C#N)=C\c3ccc(-c4ccccc4C(=O)O)o3)[nH]c2cc1C | 17.4
COc1ccc2c(c1)nc(SCC(=O)c1cccs1)n2C | -6.58
CCC1C(=O)NCCN1C(=O)c1ccc(OC)c(OC2CCN(C(C)=O)CC2)c1 (centres unmarked) | 19.2
CC(C)Oc1ccc(C(CC(=O)O)c2ccc(F)cc2)cc1 (centres unmarked) | 6.58

Compound | hERG current change (%, negative = inhibition) at 10uM [%]
Cc1ccc([N+](=O)[O-])cc1N(CC(=O)NC1CCCC1)S(C)(=O)=O | 23.9
CC1CN(C(=S)c2cccc([N+](=O)[O-])c2)CC(C)O1 (centres unmarked) | 8.78
COCCNC(=O)CCc1nnc(C2(c3ccc(Cl)cc3)CCC2)o1 | 11.8
Cc1cc(C(N)=O)c2cc(Br)ccc2n1 | 1.34
Cc1onc(-c2ccccc2Cl)c1C(=O)NC1CCS(=O)(=O)C1 (centres unmarked) | -7.29
O=C(CSc1nc2c(c(=O)[nH]1)CCC2)Nc1ccccc1Cl | -6
Cc1ccc(C(=O)OCC(=O)NC2CCCC2)cc1 | 7.18
O=C(c1ccc(CNS(=O)(=O)c2ccc(Br)cc2)cc1)N1CCCCC1 | 18.7
CCCCc1cc(=O)oc2c3c(cc(OCC(=O)NCCCO)c12)OC(C)(C)CC3 | -18.1
O=C(NCCc1ccc(F)cc1)c1ccncc1 | -1.35
Cc1ccccc1OCC(=O)NNC(=O)CCN1C(=O)c2ccccc2C1=O | 3.48
c1cnc2cc(-c3ccsc3)ncc2c1 | -2.17
NS(=O)(=O)c1cccc(NC(=O)CN2CCc3ccccc32)c1 | 4.39
Cc1cc(OCc2cc(C(=O)NCc3csc(C(C)C)n3)no2)cc(C)c1Cl | 6.73
CC1(C)CC(=O)C=C(NCc2ccco2)C1 | -3.7
CC(C)(C)c1ccc(COn2c(=O)c(-c3ccco3)[n+]([O-])c3ccccc32)cc1 | 20.7
COc1ccccc1CCNC(=O)C(=O)NCC1OCCN1S(=O)(=O)c1ccccc1 (centres unmarked) | 0.0964
CC(C)c1ccc(NC(=O)CSc2nnc(OC(=O)N(C)C)n2C2CC2)cc1 | -6.86

From article PMC4336329 (PLoS ONE, 2015)
